What was measured:
[1] = test system: monocrotaline rats; assay: Study #1, 4 weeks Monocrotaline PAH rats, preventive treatment (Example 19); format: in vivo, rat
Method: In order to evaluate the effect of two inhibitory anti-PDGF-B antibodies in the rat monocrotaline model of pulmonary arterial hypertension, 2 studies were performed: study #1 was performed on 4-week Monocrotaline PAH Rats with Preventive Drug Treatment; and study #2 was performed on 5-weeks Monocrotaline Severe PAH Rats Survival with Therapeutic Drug Treatment (Tables 26-27).
Six to seven weeks old male Sprague Dawley rats were used. Rats were separated into treatment groups such that body weights were similar among different groups. […] On day one, rats were subcutaneously administered either 40 mg/kg of monocrotaline or 5 mL/kg or saline as control. On day 28, right ventricular systolic pressure (RVSP) was measured by right heart catheterization and RV hypertrophy was calculated by Fulton index as the weight ratio of RV to (LV+septum). In study #2, rats were subcutaneously administered either 60 mg/kg of monocrotaline or 5 mL/kg of saline. […] Small molecule group was orally administered macitentan at 30 mg/kg daily. Body weight change from day 0-35 were used for general toxicity assessment and animal mortality and median survival time were calculated by day 35.
Right heart catheterization and right ventricular systolic pressure: Rats were anesthetized with isoflurane and were kept at approximately 37° C. using a heated platform (Heated Hard Pad 1, Braintree Scientific) and circulating heated water pump (T/Pump Classic, Gaymar Industries). The neck area for each rat was prepared for surgery by depilating over the right common Carotid artery and right Jugular vein. An incision was made, and the right Jugular vein was isolated with care as to not damage the carotid artery and/or the vagus nerve. A piece of 5-0 silk suture was placed under the isolated Jugular vein to allow for retraction of the vessel cranially, then a 23-gauge needle was used to introduce a hole into the Jugular vein. […] The catheter was connected to pressure/volume instrument (MPVS-300, Millar Instruments, Inc.) that measured heart rate as well as both diastolic and systolic right ventricular pressures. […] Readings were quantified from a 60 second interval of the pressure tracing (following a 2-minute period of recording to allow for pressure stabilization). The parameters analyzed were right ventricular systolic pressures (RVSP) and heart rate (HR).
Right heart hypertrophy assessment: After the in vivo hemodynamic measurements, animals were euthanized by exsanguinations under anesthesia and then RV free wall, left ventricle (LV) and septum tissue were harvested and weighted. RV hypertrophy was calculated by Fulton index as the weight ratio of RV to (LV+septum).

[2] = test system: hypoxia/sugen PAH mice; assay: Hypoxia/Sugen PAH mice, therapeutic treatment (Study 1); format: in vivo, mouse
Method: For the first study, 14 to 16 weeks old male humanized PDGFRβ^hu-hu mice, (MAID #1639) were used. Mice were separated into treatment groups by weight such that starting body weights were similar among different groups. […] Mice in hypoxia chamber were given VEGF receptor inhibitor Sugen5146 at 20 mg/kg subcutaneously once a week for 6 weeks. The mice were administered antibodies starting on day 21 for 3 weeks as outlined in Table 11. […] Mice were anesthetized with isoflurane and were kept at approximately 37° C. using a heated platform (Heated Hard Pad 1, Braintree Scientific) and circulating heated water pump (T/Pump Classic, Gaymar Industries). The neck area for each mouse was prepared for surgery by depilating over the right common Carotid artery and right Jugular vein. An incision was made, and the right Jugular vein was isolated with care as to not damage the Carotid artery and/or the Vagus nerve. A piece of 5-0 silk suture was placed under the isolated Jugular vein to allow for retraction of the vessel cranially, then a 30-gauge needle was used to introduce a hole into the Jugular vein. A pressure catheter (Micro-tip catheter transducer SPR-1000, Millar Instruments, Inc.) was inserted into the opening of the Jugular vein and advanced past the right atrium into the right ventricle. The catheter was connected to pressure/volume instrument (MPVS-300, Millar Instruments, Inc.) that measured heart rate as well as both diastolic and systolic right ventricular pressures. These parameters were digitally acquired using a data acquisition system (PowerLab 4/35, AD Instruments). LabChart […].0 software (AD Instruments) was used to analyze right ventricular pressures. […] The parameters analyzed were right ventricular systolic pressures (RVSP), heart rate (HR) and rate of right ventricular pressure rise (dP/dt max). After the in vivo hemodynamic measurements, animals were euthanized by exsanguinations under anesthesia and then RV free wall, left ventricle (LV) and septum tissue were harvested and weighted. RV hypertrophy was calculated by Fulton index as the weight ratio of RV and (LV+septum). Then, RV tissue was saved frozen (-80° C.) for biochemical analyses. Hematocrit was obtained for each mouse immediately after euthanasia.

[3] = biological target: Mouse PDGF-BB (Mus musculus, UniProt P31240); assay: HEK293/SRE-Luc/hPDGFRβ luciferase bioassay; format: cell-based; settings: 600 pM mPDGFBB
Method: (§1) In order to determine the activity of the anti PDGF-B antibodies, bioassays were performed using PDGF-BB. For performing the bioassay, 20,000 HEK293/SRE-Luc/hPDGFRβ single cell sorted cells/well were plated in 0.1% FCS Optimem overnight. […] Plates were incubated for 5.5 hours at 37° C. and luminescence was measured using One-Glo (Promega).

[4] = test system: Monkey PDGF-BB; assay: HEK293/SRE-Luc/hPDGFRβ luciferase bioassay; format: cell-based; settings: 500 pM mfPDGFBB
Method: as §1

[5] = test system: retinal vessel pericytes; assay: Retinal Vascular Development (RVD) model, pericytes; format: in vivo, mouse
Method: In analyzing the effect of anti-PDGF-B antibodies on P2 wild-type mice retinal vasculature, there was no observed effect on the pericyte coverage in anti-PDGF BB treated retinas at 3 mg/kg dosage.
To determine effect of anti-PDGF-B antibodies on retinal vasculature in P2 WT mice, the anti-PDGF-B antibodies were injected at P2; and tissue was collected at P5. All retinas were incubated with anti-NG2 antibody to detect vessel pericytes.

[6] = test system: PDGFRa and PDGFRb; assay: Flow cytometry of PDGFRa/PDGFRb surface expression in PASMC; format: cell-based, human; settings: antibody:PDGF-BB 10-1 nM, 24 hours
[7] = MCT 40 mg/kg rats, 10 mg/kg SC twice per week, vs isotype control IgG
[8] = Hypoxia/Sugen Mice - Therapeutic, dose mg/kg: H4H13145P 25, Macitentan 30, REGN2176 25

Sequence of Mouse PDGF-BB (P31240 82-190 limits assumed): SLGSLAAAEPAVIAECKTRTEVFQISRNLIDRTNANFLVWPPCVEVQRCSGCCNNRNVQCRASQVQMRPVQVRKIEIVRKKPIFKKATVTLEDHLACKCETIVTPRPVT

B1: H4H13145P: fully human anti-PDGF-B mAb, human IgG4 Fc; HCVR/LCVR SEQ ID NOs: 2/10, HC/LC 18/20 (antibody)
heavy: QVQLVQSGTEVKKPGASVKVSCKASGYTYGAYAISWVRQAPGQGLEWMGWISAYNGNTNYAQKFQDRVTMTTDTSTNTAYMELRGLKSDDTAVYFCARAWNSFDYWGQGTLVTVSSASTKGPSVFPLAPCSRSTSESTAALGCLVKDYFPEPVTVSWNSGALTSGVHTFPAVLQSSGLYSLSSVVTVPSSSLGTKTYTCNVDHKPSNTKVDKRV[human IgG4 Fc with S228P (EU numbers) left out here]
light: DIQMTQSPSSLSASVGDRVTITCQASQDIRKNLNWYQQKPGKAPKLLISDASTLETGVPSRFSGSGSGTDFTFTISSLQPEDIAKYYCQQYYNLPFTFGPGTKVDIKRTVAAPSVFIFPPSDEQLKSGTASVVCLLNNFYPREAKVQWKVDNALQSGNSQESVTEQDSKDSTYSLSSTLTLSKADYEKHKVYACEVTHQGLSSPVTKSFNRGEC
[1]; 10 mg/kg, compared to isotype control-treated rats
  reduction of right ventricular hypertrophy: 36%
[1]; MCT 40 mg/kg rats, 10 mg/kg SC twice per week from day −1, day 28
  Right ventricular systolic pressure (RVSP) Mean ± SD: 54.36 ± 12.87
[1]; [7]
  Reduction % (RV Hypertrophy): 36%
  Reduction % (RYSP): 38%
[2]; 25 mg/kg SC 2x/week from day 21, versus isotype control, day 42
  body weight loss caused by hypoxia: significantly attenuated
[2]; 25 mg/kg SC 2x/week from day 21, week 6, versus isotype control
  reduction of right ventricular systolic pressure elevation: 9 mmHg
[2]; [8]
  % reduction in RV hypertrophy: 35%
  Reduction in RVSP: 9 mmHg
[3]
  (%) Inhibition: 98%
[4]
  IC51: 3.2E−10
[5]; 3 mg/kg, P2 wild-type mice
  effect on retinal vessel pericytes: no apparent effect
[5]; higher dose (25 mg/kg), injected at P2, tissue at P5
  effect on pericyte depletion: moderate effect
[6]
  PDGFRb cell surface fluorescent signal: prevented the observed loss in PDGFRb fluorescent signal
